Test results from the supplement of paper PMC3334620.
Over roughly 33,000 sequences, “E-score (-0.5 to 0.5)” has its median near -0.036; the highest 2% begin near 0.37. The list shows a part of the results.

Biological target: T1, Yer064c (UniProt P40041)
T1 sequence: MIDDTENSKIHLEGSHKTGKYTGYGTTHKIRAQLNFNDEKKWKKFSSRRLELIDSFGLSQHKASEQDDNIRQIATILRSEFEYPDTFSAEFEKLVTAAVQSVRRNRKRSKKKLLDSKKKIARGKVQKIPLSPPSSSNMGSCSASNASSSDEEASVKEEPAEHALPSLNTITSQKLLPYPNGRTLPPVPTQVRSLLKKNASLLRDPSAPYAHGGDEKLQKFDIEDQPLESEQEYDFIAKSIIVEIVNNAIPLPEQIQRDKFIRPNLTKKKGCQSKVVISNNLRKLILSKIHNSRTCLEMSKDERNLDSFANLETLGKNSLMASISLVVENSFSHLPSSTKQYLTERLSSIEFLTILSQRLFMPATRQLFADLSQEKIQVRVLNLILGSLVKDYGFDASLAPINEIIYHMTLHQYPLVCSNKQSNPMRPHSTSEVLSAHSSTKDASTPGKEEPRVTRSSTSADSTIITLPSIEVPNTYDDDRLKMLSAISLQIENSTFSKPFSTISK
Assay: PBM E-score (8-mer binding enrichment) (E-score (-0.5 to 0.5)); higher = stronger / more preferred TF binding; most listed sequences are background and not binding sites
Conditions: protein concentration: 200 nM; construct: GST-full length
Protocol: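 Universal 'all 10-mer' protein binding microarrays (Agilent AMADID 015681) probed with GST-tagged S. cerevisiae TFs (full-length or DBD) made by in vitro transcription/translation (PURExpress), about 100-200 nM. Bound TF was detected with fluorescent anti-GST. Each ungapped 8-mer (which stands for itself and its reverse complement) is scored by the PBM enrichment score (E-score), a modified Wilcoxon-Mann-Whitney statistic from -0.5 to +0.5, computed with the Universal PBM Analysis Suite. Scale: above 0.35 generally sequence-specific binding.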

Going from CTGTCACA to AAAAATTA, the “PBM E-score” value falls from 0.16 to 0.00283.

Compared with GAAAGCCA, ATGCGTGC is higher in “PBM E-score” value: -0.256 for the first, -0.115 for the second.

Compared with GAATGTCC, AACTTTAA is higher in “PBM E-score” value: -0.25 for the first, 0.088 for the second.

First: TAGCTGGA
Second: ATGAAGAC
The “PBM E-score” value of the first is lower: -0.132 for the first, 0.218 for the second.

First: AAGGATCA
Second: ATAAGGCA
The “PBM E-score” value of the first is higher: -0.00659 for the first, -0.242 for the second.

Compared with CTCGTGGA, GAGCGTGA is higher in “PBM E-score” value: -0.0466 for the first, 0.114 for the second.

First: CGTACGCC
Second: GGGAGCTA
The “PBM E-score” value of the first is lower: -0.248 for the first, -0.13 for the second.

First: ATGAGTTG
Second: ATGTAGAA
The “PBM E-score” value of the first is higher: 0.194 for the first, -0.1 for the second.

Going from CACAGTTA to CAATCAAG, the “PBM E-score” value rises from 0.123 to 0.212.

First: AAATCGCC
Second: CGAAAAGA
The “PBM E-score” value of the first is lower: -0.0827 for the first, 0.134 for the second.

Going from ACTAGGCG to CGAATCGA, the “PBM E-score” value falls from 0.151 to -0.0366.

Compared with TGCAAACA, ATCCCGCG is higher in “PBM E-score” value: -0.0702 for the first, -3e-05 for the second.

Going from CGTTGCTC to GTTGTAGA, the “PBM E-score” value rises from -0.165 to -0.00357.

Compared with AAGCAGAT, CGTGTCTC is higher in “PBM E-score” value: -0.0385 for the first, 0.15 for the second.

First: ACGATACC
Second: ATGTCACC
The “PBM E-score” value of the first is lower: -0.0834 for the first, -0.0394 for the second.

First: CGTACACA
Second: TGCGATAA
The “PBM E-score” value of the first is lower: 0.136 for the first, 0.152 for the second.

Compared with CCTTCCTC, CACTAACG is higher in “PBM E-score” value: -0.146 for the first, 0.045 for the second.

Going from CGGTAAAA to GACCTGCC, the “PBM E-score” value falls from -0.035 to -0.227.

Compared with GCGTGACC, GAATATTC is lower in “PBM E-score” value: -0.0719 for the first, -0.161 for the second.

Going from CACAGAGA to AAGCCCAA, the “PBM E-score” value falls from -0.109 to -0.143.

Going from CAACCGGA to CAATCTAG, the “PBM E-score” value rises from -0.109 to 0.0601.

First: AACGTGGC
Second: CGATCCGC
The “PBM E-score” value of the first is lower: -0.0783 for the first, -0.0227 for the second.

Compared with ACTCGGGA, AGTATTAC is higher in “PBM E-score” value: 0.0782 for the first, 0.12 for the second.

Compared with AGTTACTG, CCCTCAGG is lower in “PBM E-score” value: -0.0574 for the first, -0.245 for the second.

Going from ACTGAAAT to ATGATGTC, the “PBM E-score” value falls from 0.267 to 0.148.

First: AGAAATGG
Second: CCTGGCTA
The “PBM E-score” value of the first is lower: -0.0961 for the first, 0.068 for the second.

First: CAGGAGTC
Second: CACAAGGC
The “PBM E-score” value of the first is higher: 0.394 for the first, -0.273 for the second.

Going from TGAGCTCA to AGACTGGA, the “PBM E-score” value falls from 0.228 to 0.0828.

Compared with AATGTCCG, CACATGTG is higher in “PBM E-score” value: -0.125 for the first, 0.242 for the second.

Compared with CATCAACA, AAGCGAAC is lower in “PBM E-score” value: 0.0384 for the first, -0.0971 for the second.

First: ATACGACC
Second: CGCGCTCA
The “PBM E-score” value of the first is lower: -0.0723 for the first, 0.0568 for the second.

First: CTGGGCTA
Second: CTATTTCA
The “PBM E-score” value of the first is lower: -0.161 for the first, -0.00598 for the second.

First: AAATCATA
Second: AGCGACGG
The “PBM E-score” value of the first is higher: 0.387 for the first, -0.139 for the second.

Compared with ACGAGCAG, CGCCAGGA is higher in “PBM E-score” value: -0.0979 for the first, 0.0372 for the second.

Compared with ACATTGGC, CATCTTCC is lower in “PBM E-score” value: 0.00362 for the first, -0.0466 for the second.

ACCGTCGT and CACCGGAC are the same in “PBM E-score” value: -0.11 for the first, -0.11 for the second.

Compared with GGGCGAAC, CGGGCGAA is lower in “PBM E-score” value: -0.022 for the first, -0.264 for the second.

First: GTCGGTTA
Second: CGGAGAGA
The “PBM E-score” value of the first is higher: -0.00314 for the first, -0.254 for the second.

Going from AGGCGAAA to TAGCGATA, the “PBM E-score” value rises from -0.0906 to -0.0837.

First: CAGGATGG
Second: CAGGTTAC
The “PBM E-score” value of the first is higher: -0.0373 for the first, -0.0481 for the second.

Going from AACCATGA to ATCCAACG, the “PBM E-score” value falls from 0.254 to -0.0882.

Compared with AATGCATT, ACCCAGTG is lower in “PBM E-score” value: -0.128 for the first, -0.135 for the second.

Compared with AAGGAAAC, GAATCCAA is higher in “PBM E-score” value: -0.248 for the first, 0.0792 for the second.

Going from GACGGGAC to ACACACTA, the “PBM E-score” value rises from -0.185 to 0.0396.

Going from ATGTCCGA to AATGGGGC, the “PBM E-score” value rises from -0.183 to -0.0696.

Going from AGTGGACC to CAGGGATG, the “PBM E-score” value rises from -0.209 to -0.026.

First: CTGTAACC
Second: CATTAAAC
The “PBM E-score” value of the first is higher: 0.0858 for the first, 0.0756 for the second.

First: CGATTTAA
Second: GCTCTCCC
The “PBM E-score” value of the first is higher: 0.188 for the first, -0.234 for the second.

Compared with AAAATATT, AAAGCATG is lower in “PBM E-score” value: -0.054 for the first, -0.183 for the second.

Compared with CCGGGAAA, ATTATGCA is higher in “PBM E-score” value: -0.186 for the first, -0.0339 for the second.

First: GGGAGGGA
Second: CATAAATC
The “PBM E-score” value of the first is lower: -0.315 for the first, 0.102 for the second.

Going from GATTTGGA to GAGTAACA, the “PBM E-score” value rises from 0.0961 to 0.238.

Compared with ATCTTCTA, AAGGGTCA is lower in “PBM E-score” value: 0.0654 for the first, -0.00535 for the second.

First: CACCCTGC
Second: ACGGAAGC
The “PBM E-score” value of the first is higher: 0.118 for the first, -0.103 for the second.

Compared with TACCTCAA, GCATTCCC is lower in “PBM E-score” value: -0.222 for the first, -0.238 for the second.

Going from CGCCAGCG to AAGGTTTA, the “PBM E-score” value rises from -0.242 to 0.0546.

First: ACATGATC
Second: TTGTGAAA
The “PBM E-score” value of the first is higher: 0.144 for the first, -0.0107 for the second.

Going from ATATTCCC to GAATTGCC, the “PBM E-score” value falls from -0.0548 to -0.288.

Compared with ATCAACTA, ACATACCC is lower in “PBM E-score” value: 0.23 for the first, 0.0801 for the second.

First: GCAAAGGA
Second: CAAGAGGA
The “PBM E-score” value of the first is lower: -0.242 for the first, 0.0625 for the second.

First: AAAGCAGA
Second: GACCAACC
The “PBM E-score” value of the first is higher: -0.0106 for the first, -0.131 for the second.

Compared with CCTTAAAG, ATACAGAA is higher in “PBM E-score” value: -0.0257 for the first, 0.101 for the second.

First: CATGGCGG
Second: CCGTGGCG
The “PBM E-score” value of the first is lower: -0.109 for the first, -0.0658 for the second.

Compared with CATTTAGG, AGCTGGTG is higher in “PBM E-score” value: -0.233 for the first, -0.104 for the second.

Going from GCTTCGGA to CTGCAGAA, the “PBM E-score” value rises from 0.0239 to 0.189.

First: CCGTTCGA
Second: CGCGGCTC
The “PBM E-score” value of the first is higher: 0.0719 for the first, -0.0621 for the second.

First: CAAGTTCA
Second: GATTATGA
The “PBM E-score” value of the first is lower: -0.0553 for the first, 0.38 for the second.

First: CAGATGCA
Second: AACCACGA
The “PBM E-score” value of the first is lower: -0.0152 for the first, 0.122 for the second.

First: CATAACCC
Second: AGAAACAA
The “PBM E-score” value of the first is lower: -0.13 for the first, 0.127 for the second.

Going from GAATTGTA to CTTGCAAA, the “PBM E-score” value rises from -0.0335 to 0.00343.

Going from CCCGCCGA to ACATTAAG, the “PBM E-score” value rises from -0.0331 to -0.0309.

Compared with ACCGGTTA, CCCAAGGC is higher in “PBM E-score” value: -0.178 for the first, -0.137 for the second.

Going from GGAGGCTA to GTTGGGTA, the “PBM E-score” value rises from -0.16 to -0.0328.

Going from ATAATCGC to CCAAAAAG, the “PBM E-score” value falls from 0.215 to 0.0109.

First: GTGTTATA
Second: ACCACGGG
The “PBM E-score” value of the first is higher: 0.0231 for the first, -0.0993 for the second.

Compared with AATTTTAC, GCCCCCCC is lower in “PBM E-score” value: 0.0888 for the first, -0.373 for the second.

First: AATTAGCT
Second: CTGCGGAA
The “PBM E-score” value of the first is higher: -0.0995 for the first, -0.215 for the second.

First: AGCGCGAA
Second: GATATTCA
The “PBM E-score” value of the first is lower: -0.0273 for the first, 0.0482 for the second.

Going from AGGGTTCG to TCCTTGAA, the “PBM E-score” value rises from -0.311 to 0.0522.

First: CCAGGTCC
Second: ACGGATAT
The “PBM E-score” value of the first is lower: -0.206 for the first, -0.0603 for the second.

First: TATTGACA
Second: CGACATCG
The “PBM E-score” value of the first is higher: 0.037 for the first, -0.144 for the second.

First: GTTATCTA
Second: ACAGCCCT
The “PBM E-score” value of the first is higher: -0.0346 for the first, -0.241 for the second.

Going from CTCTCACC to GACCAGCA, the “PBM E-score” value falls from 0.0427 to -0.263.

Compared with AACACCGT, CCCTCTTA is lower in “PBM E-score” value: -0.0515 for the first, -0.103 for the second.

First: CAACGTAC
Second: AAGGCTTG
The “PBM E-score” value of the first is lower: -0.0947 for the first, -0.0382 for the second.

Going from ACTAAATA to CCAGCGGA, the “PBM E-score” value falls from 0.192 to -0.225.
